The test system of one test is HSkMC. Put plainly: cytotoxicity call (relative viability < 0.9). As to conditions: 10 µM.
The test system of another test is S. aureus RN4220. In words: growth inhibition call (relative growth <= 0.2). The conditions noted are these: 50 µM.

The structures appear in SMILES notation. Some of the results follow.

As for `C[C@@H]1CCCCO[C@@H](CN(C)S(C)(=O)=O)[C@H](C)CN([C@@H](C)CO)C(=O)c2cc(NS(=O)(=O)c3ccccc3)ccc2O1`, the cytotoxicity call in the test on HSkMC is “inactive”. For the same compound, the growth inhibition call in the test with S. aureus RN4220 was “inactive”.

On to `Cc1ccccc1C(OCCN(C)C)c1ccccc1.O=C(O)CC(O)(CC(=O)O)C(=O)O` (stereo not given), for which the cytotoxicity call with HSkMC is “inactive”. The growth inhibition call in the test with S. aureus RN4220 was “inactive”.

Consider `COc1ccccc1CNC(=O)C[C@@H]1C[C@@H]2c3cc(NC(=O)c4ccc5c(c4)OCO5)ccc3O[C@@H]2[C@@H](CO)O1`, for which the cytotoxicity call in the test on HSkMC is “inactive”. Besides, the growth inhibition call in the test with S. aureus RN4220 is “inactive”.

With `C[C@@H]1CN([C@H](C)CO)C(=O)c2c(c3ccccc3n2C)-c2ccccc2CO[C@@H]1CN(C)Cc1ccc(Oc2ccccc2)cc1`, the cytotoxicity call with HSkMC was “inactive”. In the test on S. aureus RN4220, the growth inhibition call is “inactive”.

As for `COc1ccc2c(=O)cc(-c3ccccc3OC)oc2c1`, in the test with HSkMC, the cytotoxicity call is “inactive”. Moreover, in the test on S. aureus RN4220, the growth inhibition call was “inactive”.

On to `C=CCN1C(=O)[C@@H]2[C@@H](C1=O)[C@@H]1C=C[C@@H]2C1`, for which the cytotoxicity call in the test with HSkMC is “inactive”. In addition, in the test with S. aureus RN4220, the growth inhibition call is “inactive”.

For the compound `C[C@@H]1CN([C@@H](C)CO)C(=O)c2cc(NS(=O)(=O)c3ccc(F)cc3)ccc2O[C@@H](C)CCCCO[C@H]1CN(C)S(=O)(=O)c1ccc(Cl)cc1`, the cytotoxicity call in the test on HSkMC is “inactive”. For the same compound, the growth inhibition call with S. aureus RN4220 was “inactive”.

For `C[C@H]1CCCCO[C@H](CN(C)Cc2ccc(Cl)c(Cl)c2)[C@@H](C)CN([C@@H](C)CO)C(=O)c2cc(NS(=O)(=O)c3ccc(F)cc3)ccc2O1`, the cytotoxicity call with HSkMC was “active”. For the same compound, the growth inhibition call with S. aureus RN4220 was “inactive”.

On to `O=C(O)CNS(=O)(=O)c1ccccc1F`, for which the cytotoxicity call in the test on HSkMC was “inactive”. In addition, the growth inhibition call with S. aureus RN4220 is “inactive”.

Consider `CN(C)CC(=O)N[C@H]1C=C[C@@H](CC(=O)O)O[C@@H]1CO`, for which the cytotoxicity call with HSkMC is “inactive”. Also, the growth inhibition call in the test with S. aureus RN4220 was “inactive”.

On to `O=C(Nc1cc(C(F)(F)F)cc(C(F)(F)F)c1)Nc1c(Br)cc(Br)cc1-c1nn[nH]n1`, for which, in the test with HSkMC, the cytotoxicity call was “inactive”. Besides, the growth inhibition call in the test with S. aureus RN4220 is “active”.

As for `CO[C@@H]1CN(C)C(=O)c2ccc(NC(=O)c3ccccc3)cc2OC[C@H](C)N(C(=O)CN(C)C)C[C@@H]1C`, the cytotoxicity call in the test on HSkMC is “inactive”. In the test on S. aureus RN4220, the growth inhibition call was “inactive”.

With `Cc1ccc(S(=O)(=O)N(C)C[C@H]2OCCCC[C@H](C)Oc3ccc(NS(=O)(=O)c4ccc(F)cc4)cc3C(=O)N([C@@H](C)CO)C[C@@H]2C)cc1`, the cytotoxicity call with HSkMC is “inactive”. Further, the growth inhibition call in the test with S. aureus RN4220 was “inactive”.

Consider `O=C(CN1CCNCC1)c1ccc(F)cc1`, for which the cytotoxicity call in the test with HSkMC was “inactive”. The growth inhibition call with S. aureus RN4220 was “inactive”.

In the case of `CC(O)C(=O)Nc1c(I)c(C(=O)NC(CO)CO)c(I)c(C(=O)NC(CO)CO)c1I` (stereo not given), in the test with HSkMC, the cytotoxicity call was “inactive”. For the same compound, in the test with S. aureus RN4220, the growth inhibition call is “inactive”.

For `O=C(C[C@@H]1CC[C@H]2[C@@H](COC[C@@H](O)CN2CC2CCOCC2)O1)N1CCOCC1`, in the test on HSkMC, the cytotoxicity call is “inactive”. Further, the growth inhibition call in the test on S. aureus RN4220 was “inactive”.

For `CC(C)NC(=O)Nc1ccc2c(c1)C(=O)N([C@H](C)CO)C[C@@H](C)[C@@H](CN(C)S(=O)(=O)c1ccc(Cl)cc1)O2`, the cytotoxicity call in the test with HSkMC was “inactive”. In addition, the growth inhibition call in the test on S. aureus RN4220 is “inactive”.

For the compound `COc1ccc(NC(=O)Nc2cccc3c2O[C@H](CN(C)Cc2ccc(C(F)(F)F)cc2)[C@H](C)CN([C@@H](C)CO)C3=O)cc1`, the cytotoxicity call with HSkMC is “inactive”. Moreover, the growth inhibition call in the test on S. aureus RN4220 was “inactive”.

In the case of `CCCNC(=O)N1C[C@@H](O)COC[C@H]2O[C@@H](CC(=O)N3CCOCC3)CC[C@@H]21`, the cytotoxicity call in the test on HSkMC is “inactive”. The growth inhibition call in the test on S. aureus RN4220 was “inactive”.

As for `COc1ccccc1C(=O)Nc1ccc2c(c1)C(=O)N(C)[C@H]1CC[C@@H](CC(=O)NCCc3ccncc3)O[C@H]1CO2`, the cytotoxicity call in the test on HSkMC was “inactive”. The growth inhibition call in the test on S. aureus RN4220 was “inactive”.

Consider `C[C@@H]1CN([C@@H](C)CO)C(=O)c2cc(C#C[C@@H](C)O)cnc2O[C@H]1CN(C)C(=O)CN1CCOCC1`, for which, in the test with HSkMC, the cytotoxicity call was “inactive”. The growth inhibition call in the test on S. aureus RN4220 is “inactive”.

Take `Cc1noc(C)c1S(=O)(=O)N(C)C[C@H]1Oc2ccc(NS(=O)(=O)c3ccc(Cl)cc3)cc2CC(=O)N([C@H](C)CO)C[C@H]1C`: in the test with HSkMC, the cytotoxicity call was “inactive”. The growth inhibition call in the test on S. aureus RN4220 was “inactive”.

Regarding `COc1ccc(S(=O)(=O)N(C)C[C@@H]2OCCCC[C@H](C)Oc3ccc(NC(=O)c4ccccc4)cc3C(=O)N([C@H](C)CO)C[C@@H]2C)cc1`, the cytotoxicity call in the test with HSkMC is “inactive”. For the same compound, the growth inhibition call in the test with S. aureus RN4220 was “inactive”.

As to `COc1ccc(S(=O)(=O)Nc2ccc3c(c2)CC(=O)N([C@@H](C)CO)C[C@H](C)[C@H](CN(C)S(C)(=O)=O)O3)cc1`, the cytotoxicity call in the test on HSkMC was “inactive”. Moreover, the growth inhibition call with S. aureus RN4220 was “inactive”.

On to `COc1ccc2c3c([nH]c2c1)[C@@H](CO)N(C[C@]13CCN(CC1)C(=O)CN(C)C)S(=O)(=O)C`, for which the cytotoxicity call in the test on HSkMC is “inactive”. The growth inhibition call with S. aureus RN4220 was “inactive”.

In the case of `C[C@@H]1CCCCO[C@H](CN(C)Cc2ccc3c(c2)OCO3)[C@H](C)CN([C@H](C)CO)C(=O)c2cc(NC(=O)Nc3cccc4ccccc34)ccc2O1`, in the test with HSkMC, the cytotoxicity call is “active”. In addition, in the test with S. aureus RN4220, the growth inhibition call was “inactive”.

Consider `C[C@@H]1CCCCO[C@H](CN(C)C(=O)Nc2cccc3ccccc23)[C@@H](C)CN([C@@H](C)CO)C(=O)c2cc(NC(=O)C3CCCCC3)ccc2O1`, for which the cytotoxicity call in the test with HSkMC was “inactive”. Moreover, the growth inhibition call in the test on S. aureus RN4220 is “inactive”.

Turning to `COc1ccc(NC(=O)Nc2cccc3c2O[C@@H](CN(C)Cc2ccc(-c4ccccc4)cc2)[C@H](C)CN([C@@H](C)CO)C3=O)cc1`, the cytotoxicity call in the test on HSkMC is “inactive”. Also, the growth inhibition call with S. aureus RN4220 was “inactive”.

For the compound `C[C@@H]1CN([C@H](C)CO)C(=O)c2cc(NC(=O)Nc3ccc(C(F)(F)F)cc3)ccc2O[C@@H]1CN(C)Cc1ccc(C(=O)O)cc1`, the cytotoxicity call in the test on HSkMC was “inactive”. For the same compound, in the test with S. aureus RN4220, the growth inhibition call is “inactive”.

As for `C[C@H](CO)N1C[C@H](C)[C@H](CN(C)Cc2ccc(C(F)(F)F)cc2)OCc2ccccc2-c2ccccc2C1=O`, the cytotoxicity call in the test on HSkMC (human skeletal muscle cells) was “inactive”. Further, in the test with S. aureus RN4220, the growth inhibition call is “inactive”.

For the origin of these results see the antibiotic and cytotoxicity screens of Wong et al. (2023).
